The text below walks through data of PubChem BioAssay AID360 (National Center for Advancing Translational Sciences (NCATS), 2006).

Out of some 48,000 compounds screened, about 550 (1.1%) were called active. Not shown: some 4% with an inconclusive outcome. Rule as the data show it: active = potency below about 15 µM; inconclusive = mostly about 16 µM to 33 µM; inactive = weaker than that. This is one part of the list.
Potency is read from the fitted curve at half-maximal effect.

UniProt P04062, sequence (P04062 whole entry, looked up): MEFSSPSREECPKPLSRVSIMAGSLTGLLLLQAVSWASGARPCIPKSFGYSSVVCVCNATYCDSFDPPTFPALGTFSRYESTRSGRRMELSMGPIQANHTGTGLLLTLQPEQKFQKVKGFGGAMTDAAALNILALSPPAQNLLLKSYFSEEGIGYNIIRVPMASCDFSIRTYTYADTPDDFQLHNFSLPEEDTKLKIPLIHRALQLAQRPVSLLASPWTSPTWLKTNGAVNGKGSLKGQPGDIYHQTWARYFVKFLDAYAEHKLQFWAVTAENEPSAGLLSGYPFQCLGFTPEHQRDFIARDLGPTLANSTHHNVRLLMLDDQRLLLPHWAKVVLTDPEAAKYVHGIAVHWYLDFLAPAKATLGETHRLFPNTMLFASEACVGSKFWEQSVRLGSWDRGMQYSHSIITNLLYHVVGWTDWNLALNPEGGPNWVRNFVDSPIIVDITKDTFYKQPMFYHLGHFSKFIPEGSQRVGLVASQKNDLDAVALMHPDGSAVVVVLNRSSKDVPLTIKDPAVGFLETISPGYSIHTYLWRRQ

The test addresses Lysosomal acid glucosylceramidase (Homo sapiens) (UniProt P04062). The test can be described thus: Glucocerebrosidase.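 Also: the screen sought inhibitors.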 The settings on record: purified enzyme, resorufin glucoside fluorescence (screen aimed at inhibitors), 20 min. The gist of the method:
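Compounds titrated against 0.2 nM normal enzyme, 30 uM resorufin beta-D-glucopyranoside substrate, citrate/phosphate buffer with taurocholate and tween-20, pH 5.9. Reaction ran 20 min at room temperature; fluorescence (Ex 548/Em 600) gave AC50.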
Take `O=C(Cc1cccs1)NCC1CCCO1` (stereo unspecified): the Potency was inactive: > 76.9 µM.

`O=S(=O)(CCSc1ccccn1)c1nc2ccccc2s1`: the Potency is inactive: > 76.9 µM.

Turning to `O=C(CSc1nnc(-c2ccco2)o1)NCC(=O)c1ccccc1`, the Potency is inactive: > 76.9 µM.

For the molecule `CC1CCCN(C(=O)C2CCN(CC3CC=CCC3)CC2)C1` (stereo unspecified), the Potency is inactive: > 76.9 µM.

For `CC1CCc2cc(F)ccc2N1C(=O)c1ccc2c(c1)OCO2` (stereo unspecified), the Potency was inactive: > 76.9 µM.

`COc1ccc2nc(NC(=O)CCNS(=O)(=O)c3ccc4c(c3)oc(=O)n4C)sc2c1`: the Potency is inactive: > 76.9 µM.

`CCOC(=O)C1(O)CSc2nc3sc(C(=O)O)c(C)c3c(=O)n21` (stereo unspecified): the Potency is inactive: > 76.9 µM.

For the molecule `Cc1ccc(Nc2nc(N)nc(CN3CCN(c4ccccc4)CC3)n2)cc1Cl`, the Potency is active: 4.19 µM.

Turning to `O=C(CSc1nnc(-c2cccc(S(=O)(=O)N3CCCCC3)c2)o1)NCCC1=CCCCC1`, the Potency was inactive: > 76.9 µM.

Consider `COc1ccccc1CC(=O)NCc1ccc2c(c1)OCO2`, for which the Potency was inactive: > 76.9 µM.

Regarding `Cc1c(C(=O)Nc2ccncc2)oc2c1C(=O)CC(C)(C)C2`, the Potency is inactive: > 76.9 µM.

As to `CCN(c1ccccc1)S(=O)(=O)c1ccc(Oc2ccc(-n3ccnc3)cc2)nc1`, the Potency result is “inactive”.

With `CC12CN3CC(C)(CN(C1)C3c1ccccc1Cl)C2O` (stereo unspecified), the Potency is inactive: > 76.9 µM.

Turning to `COC(=O)c1cc(NC(=O)CN(c2ccc3c(c2)OCO3)S(C)(=O)=O)ccc1Cl`, the Potency was inactive: > 76.9 µM.

As to `Cc1cc(NS(=O)(=O)c2ccc(NC(=O)COc3ccc(Cl)cc3)cc2)no1`, the Potency was inactive: > 76.9 µM.

For the molecule `CCn1nnnc1-c1ccc(OC)c(S(=O)(=O)Nc2ccc(C(=O)OC)cc2)c1`, the Potency was inactive: > 76.9 µM.

Regarding `Cc1[nH]nc2c1C(c1ccc(-c3ccccc3C#N)o1)C(C#N)=C(N)O2` (stereo unspecified), the Potency was inactive: > 76.9 µM.

With `CCOc1ccc(C(=O)Nc2c3c(nn2-c2cccc(Cl)c2)CS(=O)C3)cc1` (stereo unspecified), the Potency is inactive: > 76.9 µM.

For `N#Cc1nc(-c2cccs2)oc1N1CCN(c2ccccc2)CC1`, the Potency was active: 8.29 µM.

Consider `COc1ccc(-n2nc(C(=O)N3CCN(c4ccc(F)cc4)CC3)c3ccccc3c2=O)c(OC)c1`, for which the Potency is inactive: > 76.9 µM.

On to `CS(=O)(=O)N1CCCC(C(=O)NCCCN2CCOCC2)C1` (stereo unspecified), for which the Potency is inactive: > 76.9 µM.

As to `COC(=O)CCC(NC(=O)c1cc(-c2ccc3c(c2)OCCO3)oc1C)C(=O)OC` (stereo unspecified), the Potency was inactive: > 76.9 µM.

Regarding `CCCn1c(SCc2ccccn2)nc2c1c(=O)n(C)c(=O)n2C`, the Potency is inactive: > 76.9 µM.

On to `COc1ccc(C(=O)N2CCN(C(=O)Cc3ccccc3)CC2)cc1OC`, for which the Potency was inactive: > 76.9 µM.

Take `O=C(NCc1ccc2c(c1)OCO2)c1cc(-n2cnnc2)ccc1Cl`: the Potency was inactive: > 76.9 µM.

Take `Cc1ccc(C)c(OCC(O)CN2C(C)CCCC2C)c1` (stereo unspecified): the Potency is inactive: > 76.9 µM.

For `O=C(CSc1nnnn1Cc1ccccc1)NCC(=O)c1ccccc1`, the Potency is inactive: > 76.9 µM.

Take `COc1ccccc1CNC(=O)COC(=O)C1=COCCO1`: the Potency is inactive: > 76.9 µM.

For `CC(NC(=O)C1C2C=CC(C2)C1C(=O)O)c1ccccc1` (stereo unspecified), the Potency was inactive: > 76.9 µM.

For the molecule `COc1ccc(OC)c(S(=O)(=O)N2CCC(C(=O)Nc3cccc(C)c3C)CC2)c1`, the Potency was inactive: > 76.9 µM.

On to `COc1ccc2cc3cc(C(=O)N4CCN(Cc5ccc6c(c5)OCO6)CC4)oc3nc2c1`, for which the Potency was inactive: > 76.9 µM.

Consider `CCOC(=O)c1ccc(NS(=O)(=O)c2ccc(SC)cc2)cc1`, for which the Potency result is “inactive”.

With `COC(=O)c1ccccc1NC(=O)c1c(O)c2cccc3c2n(c1=O)CCC3`, the Potency is inactive: > 76.9 µM.

Turning to `CCOC(=O)c1c(NC(=O)c2csc(C)c2)sc(C(C)=O)c1C`, the Potency was inactive: > 76.9 µM.

On to `COC(=O)c1cc(Cl)c(NS(=O)(=O)c2ccccc2)cc1OC`, for which the Potency is inactive: > 76.9 µM.

As for `CCC(CC)NCc1ccc(OC)cc1OC`, the Potency was inactive: > 76.9 µM.

With `Cn1c(CCNC(=O)c2cccs2)nnc1SCC(=O)N1CCN(c2ccccc2)CC1`, the Potency is inactive: > 76.9 µM.

`CCC(C)(C(=O)NC1CCCCC1)N(C(=O)C1CCC(=O)N1)c1ccc(C)cc1` (stereo unspecified): the Potency is inactive: > 76.9 µM.

For `O=C(Nc1ccc2nn(-c3ccccc3)nc2c1)c1ccc(Br)o1`, the Potency is inactive: > 76.9 µM.

For `C=C(C)COc1ccc(-c2nc(N)nc(C)c2Oc2ccccc2OC)c(O)c1`, the Potency was inactive: > 76.9 µM.

Regarding `Cc1ccc(CC(=O)Nc2nncs2)cc1`, the Potency was inactive: > 76.9 µM.

`CCN(C(=O)CN1CCN(c2ccc(O)cc2)CC1)c1c(N)n(Cc2ccccc2)c(=O)[nH]c1=O`: the Potency was inactive: > 76.9 µM.

With `CC1Cc2ccccc2N1C(=O)CSc1nnc2n1C(C)(C)Cc1ccccc1-2` (stereo unspecified), the Potency is inactive: > 76.9 µM.

Regarding `COc1ccc(Br)cc1C(=O)NCc1cccnc1`, the Potency is inactive: > 76.9 µM.

In the case of `N#Cc1nc(-c2ccc(OCc3ccc(Cl)cc3)cc2)oc1NCc1cccnc1`, the Potency is inactive: > 76.9 µM.

With `CC1(C)c2ccccc2N2CC(=O)NC21/C=C/c1ccco1` (stereo unspecified), the Potency was inactive: > 76.9 µM.

`CC1(C)CC(=O)C(C=NCCc2ccc(S(N)(=O)=O)cc2)=C(O)C1`: the Potency is inactive: > 76.9 µM.

In the case of `Cn1c(Cc2cccs2)nnc1SCC(=O)N1CCc2ccccc21`, the Potency is inactive: > 76.9 µM.

As for `Cc1cc(=O)[nH]c(Nc2c(C)n(C)n(-c3ccccc3)c2=O)n1`, the Potency was inactive: > 76.9 µM.

As to `COc1cc2c(cc1NC(=O)COC(=O)Cn1cnc3ccccc31)oc1ccccc12`, the Potency was inactive: > 76.9 µM.

As for `O=C(N1CCCCCC1)N1CCN(S(=O)(=O)N2CCCCC2)CC1`, the Potency is inactive: > 76.9 µM.

Consider `CN(C)CCOc1nc(-c2ccccc2)nc2c1oc1ccccc12`, for which the Potency result was “inactive”.

Consider `CCOC(=O)N1CCN(C(=O)CSc2nc(-c3cccc(C)c3)ns2)CC1`, for which the Potency is inactive: > 76.9 µM.

With `COCc1cc(C)nc2sc(C(=O)N3CCCC3)c(N)c12`, the Potency was inactive: > 76.9 µM.

Take `O=C(c1ccc(Cl)c(Cl)c1)N1CCOCC1`: the Potency was inactive: > 76.9 µM.

Take `CC1CCc2c(sc3ncnc(SCC(=O)N4CCN(C(=O)c5ccco5)CC4)c23)C1` (stereo unspecified): the Potency was inactive: > 76.9 µM.

Consider `O=C(CS(=O)(=O)c1c[nH]c2ccccc12)N1CCCCC1`, for which the Potency is inactive: > 76.9 µM.

Regarding `Cc1cccc(CC(=O)Nc2c3c(nn2-c2cccc(Cl)c2)CS(=O)C3)c1` (stereo unspecified), the Potency is inactive: > 76.9 µM.

As for `Cc1ccc(S(=O)(=O)N2CCC(C(=O)Nc3ccccc3N3CCCCC3)CC2)cc1`, the Potency was inactive: > 76.9 µM.

With `O=C(CCCCn1c(=O)[nH]c2ccccc2c1=O)N1CCN(c2cccc(C(F)(F)F)c2)CC1`, the Potency is inactive: > 76.9 µM.

Consider `Cc1ccc(C2(C(F)(F)F)NC(=O)N3CCCN=C3S2)cc1` (stereo unspecified), for which the Potency was inactive: > 76.9 µM.

`COc1ccc(OC)c(S(=O)(=O)N(C)CC(=O)Nc2cc(Cl)ccc2OC)c1`: the Potency is inactive: > 76.9 µM.

Turning to `CSc1cccc(NC(=O)c2nnn(Cc3ccccc3)c2N)c1`, the Potency was inactive: > 76.9 µM.

On to `Cc1cc(C)n(CC(O)CN2C(=O)NC(C)(C)C2=O)n1` (stereo unspecified), for which the Potency is inactive: > 76.9 µM.

Turning to `OC12CCCCC1C(c1ccc3c(c1)OCO3)N(Cc1ccc(F)cc1)CC2` (stereo unspecified), the Potency was inactive: > 76.9 µM.

Regarding `COc1ccc(S(=O)(=O)N2CCc3ccccc32)cc1C(=O)OCc1c(C)noc1C`, the Potency was inactive: > 76.9 µM.

Take `Cn1c(=O)oc2cc(S(=O)(=O)Nc3cccc4c3CCCC4)ccc21`: the Potency is inactive: > 76.9 µM.

Consider `CCCCC(OC(=O)c1cc2occc2n1C)C(=O)NCC1CCCO1` (stereo unspecified), for which the Potency was inactive: > 76.9 µM.

For the molecule `O=C(CN1C(=O)CSC1=O)Nc1ccc(C(=O)O)cc1`, the Potency is inactive: > 76.9 µM.

`CCn1c(N2CCN(CC(=O)Nc3cccc(C)c3C)CC2)nc2ccccc21`: the Potency was inactive: > 76.9 µM.

As to `Cc1ccc(-n2c(=O)[nH]cc(C(=O)Nc3ccc4c(c3)OCCO4)c2=O)cc1C`, the Potency is inactive: > 76.9 µM.

Regarding `Cc1ccc(C(=O)NC2CC(C)(C)NC(C)(C)C2)c(C)c1`, the Potency is inactive: > 76.9 µM.

As for `Cc1ccc2nsnc2c1S(=O)(=O)N(CCO)Cc1cc2cc3c(cc2[nH]c1=O)OCCO3`, the Potency is inactive: > 76.9 µM.

As to `COc1ccc(NC(=O)c2c(SC)nsc2SC)cc1`, the Potency is inactive: > 76.9 µM.

For `Cc1cc(=O)[nH]c(SCC(=O)Nc2cccc(C(F)(F)F)c2)n1`, the Potency was inactive: > 76.9 µM.

With `CCOc1ccc(C(F)(F)F)cc1NC(C)=O`, the Potency is inactive: > 76.9 µM.

Consider `COc1ccc(S(=O)(=O)N(CC(=O)N2CCOCC2)c2cc(Cl)ccc2OC)cc1OC`, for which the Potency was inactive: > 76.9 µM.

Consider `CCN(CC)c1ccc(CN(C(=O)c2ccco2)C2CCS(=O)(=O)C2)cc1` (stereo unspecified), for which the Potency is inactive: > 76.9 µM.

`COC(=O)C1=C(C)NC(=O)NC1/C=C/c1ccccc1` (stereo unspecified): the Potency was inactive: > 76.9 µM.

Consider `OCc1nnn(-c2cccc(C(F)(F)F)c2)c1CO`, for which the Potency was inactive: > 76.9 µM.

For `Cc1cc(C)c2[nH]c(=O)c(CN(C(=O)C3CCCO3)C3CCCC3)cc2c1` (stereo unspecified), the Potency is inactive: > 76.9 µM.

`CCOC(=O)c1c(NC(=O)COC)sc2c1CCCC2`: the Potency was inactive: > 76.9 µM.

Consider `CCOC(=O)c1ccc(N2C(=O)CC(N3CCOCC3)C2=O)cc1` (stereo unspecified), for which the Potency was inactive: > 76.9 µM.

As to `O=C(CSc1nnnn1C1CCCCC1)Nc1ccc2c(c1)OCO2`, the Potency was inactive: > 76.9 µM.

As for `O=C(NCc1ccccc1)c1ccc(-c2ccccc2F)o1`, the Potency is inactive: > 76.9 µM.

As for `CCCOc1ccc2oc(=O)c3c(c2c1)CCCN3C(=O)CN1CCN(C(=O)c2ccco2)CC1`, the Potency is inactive: > 76.9 µM.

In the case of `COc1ccc(OC)c(N(CC(=O)N2CCN(c3cc(Cl)ccc3C)CC2)S(C)(=O)=O)c1`, the Potency is inactive: > 76.9 µM.

With `N#Cc1c[nH]n2c(=O)cc(Cc3ccccc3)nc12`, the Potency was inactive: > 76.9 µM.

`Cc1nn(Cc2ccccc2)c(Cl)c1C(=O)NCc1ccc(C)n1C`: the Potency was inactive: > 76.9 µM.

In the case of `CCCS(=O)(=O)NCCc1cc2cc(C)c(C)cc2[nH]c1=O`, the Potency is inactive: > 76.9 µM.

Turning to `COc1ccc(NC(=O)CSC2CCCCC2)cc1`, the Potency is inactive: > 76.9 µM.

In the case of `CC(C)Cn1c2c(c(O)c(C(=O)Nc3ccc(F)cc3)c1=O)CCCC2`, the Potency was inactive: > 76.9 µM.

Regarding `O=C(O)C1CCCCC1C(=O)NC1CCCCC1` (stereo unspecified), the Potency was inactive: > 76.9 µM.

Regarding `O=C(COc1ncnc2ccc(Br)cc12)Nc1ccc(N2CCOCC2)cc1`, the Potency is inactive: > 76.9 µM.

`CCCCn1nnc(NC(=O)Cc2ccc(Cl)cc2)n1`: the Potency was inactive: > 76.9 µM.

Consider `Cn1c(=O)c2c(nc(NCCc3ccccc3)n2Cc2ccccc2)n(C)c1=O`, for which the Potency was inactive: > 76.9 µM.
